# Laboratory results published in PubChem BioAssay AID1159614 (National Center for Advancing Translational Sciences (NCATS), 2016).
# Out of some 45,000 compounds screened, about 65 (0.1%) were called active. The call rests on the fitted dose curve; in most records, active means well fitted activation curve with a large enough effect; inconclusive means small, poorly fitted or top-dose-only effect; inactive means no such curve, though single readings can be large or run the other way. The list shows a part of the results.
# Molecular target: Galactocerebrosidase (Homo sapiens) (UniProt P54803)
# Experiment: A Novel Cell-Based Assay to Identify Small Molecules for B -Galactocerebrosidase; further: 0% is about no effect; nearly all actives have a fitted effect of over 65% in size
# Conditions: 145M-Twi-hGALC-G270D cells (Twitcher mouse brain line with human GALC G270D), HMU-beta-Gal fluorescence, 48 h; series mostly up to 57.5 µM; activation: at the top concentration
# Procedure, shortened: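 Live 145M-Twi cells (Twitcher mouse brain-derived, GALC-null) stably expressing human GALC-G270D, with a wild-type GALC line, were compound-treated. Residual GALC activity was then read as fluorescence from 0.1 mM final HMU-β-gal at pH 5.2; higher signal means activation.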
# Chain of UniProt P54803 (P54803 whole entry, looked up): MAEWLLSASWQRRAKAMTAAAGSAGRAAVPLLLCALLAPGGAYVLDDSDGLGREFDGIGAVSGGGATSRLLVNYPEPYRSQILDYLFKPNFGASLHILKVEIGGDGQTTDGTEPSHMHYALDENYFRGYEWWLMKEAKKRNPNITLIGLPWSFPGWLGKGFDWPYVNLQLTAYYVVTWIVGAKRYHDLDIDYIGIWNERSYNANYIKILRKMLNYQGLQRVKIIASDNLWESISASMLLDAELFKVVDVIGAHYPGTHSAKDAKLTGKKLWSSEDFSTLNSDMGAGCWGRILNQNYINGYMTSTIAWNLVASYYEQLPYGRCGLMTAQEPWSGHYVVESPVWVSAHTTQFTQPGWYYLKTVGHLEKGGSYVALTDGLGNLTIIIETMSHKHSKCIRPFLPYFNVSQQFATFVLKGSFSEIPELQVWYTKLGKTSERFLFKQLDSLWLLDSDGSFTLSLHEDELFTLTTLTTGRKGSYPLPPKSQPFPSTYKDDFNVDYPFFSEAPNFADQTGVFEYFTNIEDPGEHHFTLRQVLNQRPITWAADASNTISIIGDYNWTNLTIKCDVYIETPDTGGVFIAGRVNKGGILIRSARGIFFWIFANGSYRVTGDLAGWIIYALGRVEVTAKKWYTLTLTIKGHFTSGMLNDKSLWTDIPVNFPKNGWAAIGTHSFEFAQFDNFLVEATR
row,Compound,activation
1,CCOc1ccc(NC(=O)CSc2nc(-c3cccc(Cl)c3)nc3c2Cc2c(CO)cnc(C)c2O3)cc1,inactive: -5.59%
2,Cc1cccc(NC(=O)CC2Nc3cccc4cccc(c34)NC2=O)c1 (centres undefined),inactive: -26%
3,COC(=O)c1cc2oc(C)cc2n1Cc1cc(C)ccc1C,inactive: -11.6%
4,CN(c1ncnc2c1c(-c1ccccc1)cn2-c1cccc(Cl)c1)C1CCCCC1,inactive: 2.34%
5,Cc1ccc(-c2nnn3c2nc(NCCc2ccccc2)c2ccccc23)cc1,inactive: -7.41%
6,COc1cccc(NC(=O)CCc2nc(-c3ccc(C(C)(C)C)cc3)no2)c1,inactive: -13.3%
7,COCCN(Cc1ccco1)C(=O)Cn1ncc2c([nH]c3ccccc32)c1=O,inactive: -0.592%
8,Cc1cc2c(cc1S(=O)(=O)CCC(=O)N(C)C1CCCCC1)OCC(=O)N2,inactive: -1.46%
9,Cc1c(Cl)cccc1NC(=O)N1CCC(CN2CCOCC2)CC1,inactive: -17.5%
10,OCc1ccc(Cl)cc1Cl,inactive: -11.3%
11,Cc1ccc(C)c(C(=O)CSc2nc(-c3ccccc3)nc3c2CCCC3)c1,inactive: -7.62%
12,CCc1ccc(CN(Cc2ccco2)C(=O)COc2ccccc2Cl)cc1,inactive: -32.3%
13,Cc1cccc(-n2c(=O)c3c(c4cc(C)ccc4n3C)n(C)c2=O)c1,inactive: -2.37%
14,NC(=O)CN1C(=O)C2(SCC(=O)N2c2cccc(F)c2)c2ccccc21 (centres undefined),inactive: -19.7%
15,COc1ccc(C2C(C(=O)Nc3ccc(C)cc3C)=C(C)Nc3nc(SC)nn32)cc1OC (centres undefined),inactive: -0.143%
16,CC(=O)OCc1cnc(C)c2oc(=O)c(C(=O)Nc3cc(F)ccc3C)cc12,inactive: -1.81%
17,O=C(c1ccc([N+](=O)[O-])cc1)N(Cc1ccco1)c1ccccn1,inactive: -25.3%
18,COc1ccc(NC(=O)C2CCN(S(=O)(=O)c3cn(C)cn3)CC2)cc1Cl,inactive: -1.1%
19,CC(C)C(=O)Nc1nnc(S(=O)(=O)N(C)Cc2ccc(F)cc2)s1,inactive: -10.4%
20,CCOc1ccccc1NC(=O)C1CCCN(c2ncnc3onc(-c4ccc(F)cc4)c23)C1 (centres undefined),inactive: -9.21%
21,COc1ccccc1CNC(=O)c1ccc(-c2nc(CS(=O)c3ccc(C)cc3)c(C)o2)cc1 (centres undefined),inactive: -18.8%
22,COc1ccc(S(=O)(=O)Nc2ccc3c(c2)sc(=O)n3C)cc1Cl,inactive: -34.4%

row,Compound,activation
1,CCCCn1c(=O)c2oc3ccccc3c2n(Cc2ccc(OC)cc2)c1=O,inactive: -0.323%
2,Cc1cc(C)cc(NC(=O)c2cn3c4c(ccc(Cl)c4c2=O)OC(C)C3)c1 (centres undefined),inactive: -5.3%
3,Cc1ccc(NC(=O)c2nnn(Cc3ccccc3)c2N)cc1C,inactive: 10.4%
4,CCOC(=O)c1cc2c(=O)n3ccccc3nc2n(Cc2ccco2)c1=NC(=O)c1ccc(Br)cc1,inactive: -15.5%
5,O=C(CSc1oc(-c2ccccc2)nc1S(=O)(=O)c1ccc(Br)cc1)c1ccccc1,inactive: -6.32%
6,COc1ccc(NC(=O)c2ccco2)cc1NC(=O)COc1cccc(C)c1C,inactive: -12%
7,CCc1ccc(NC(=O)CN(C)S(=O)(=O)c2ccc3c(c2)c(=O)n(C)c(=O)n3C)cc1,inactive: -6.34%
8,COc1ccc(C)cc1NC(=O)COc1cc(=O)n(C)c2ccccc12,inactive: -5.75%
9,Cc1ccccc1-c1nc(SCC(=O)NCc2ccc(F)cc2)c2c(=O)n(C)c(=O)n(C)c2n1,inactive: 0.86%
10,O=C(Nc1ccc(Br)cc1)c1ccc(F)c(S(=O)(=O)NC2CCCCCC2)c1,inactive: -7.78%
11,Cc1cccc(C)c1NC(=O)Nc1csc2c1CCCC2,inactive: -15%
12,O=C(CCn1nc(-c2ccccc2)c2ccccc2c1=O)Nc1ccccc1,inactive: -12%
13,Cc1ccc(-n2nc(CO)c(C(=O)NCc3ccccn3)n2)cc1,inactive: -6.85%
14,Cc1ccc2nc(N(CCCN(C)C)C(=O)c3ccco3)sc2c1,inactive: -17.9%
15,COc1ccc(-c2nc(-c3cc4cc(Br)ccc4oc3=O)cs2)cc1,inactive: -16%
16,COc1ccccc1N1CCN(c2nc3ccccc3n3cnnc23)CC1,inactive: 2.06%
17,Cc1ccc2c(c1)N(C(=O)N1CCC(C(=O)NCc3cccc(Br)c3)CC1)CCO2,inactive: -6.99%
18,COc1ccc(OCc2ccc(-c3nc(C#N)c(N4CCN(c5ccccc5)CC4)o3)o2)cc1,inactive: -16.8%
19,Cc1cc(-c2ccc(C)c(S(=O)(=O)Nc3cccc(C)n3)c2)on1,inactive: -10.9%
20,CC(=O)Nc1ccc(NC(=O)c2cc(=O)c3ccccc3o2)cc1,inactive: 11%
21,CCc1ccc(-n2nnc(-c3nsc(NC(=O)c4ccccc4Cl)n3)c2C)cc1,inactive: -13.5%
22,O=C(COc1ccccc1F)OCc1cc(=O)n2nc(C3CCCCC3)sc2n1,inactive: 1.94%

row,Compound,activation
1,CCN(CC)c1cc(C)c2cc(NC(=O)c3cccc(OC)c3OC)ccc2n1,inactive: -5.33%
2,COc1cccc2cc(S(=O)(=O)c3ccc(F)c(C)c3)c(=O)oc12,inactive: -16.8%
3,COC(=O)c1sc2cccc(F)c2c1S(=O)(=O)N1CCN(c2cccc(OC)c2)CC1,inactive: -8.7%
4,CCOC(=O)c1cc(-c2ccccc2)n(CCC(=O)NCc2ccccc2Cl)c1C,inactive: -13.7%
5,COc1ccc(Nc2nc3ccccc3nc2NS(=O)(=O)c2ccc(C)cc2)c(OC)c1,inactive: 2.77%
6,Cc1nc2nc(SCC(=O)N(C)Cc3ccccc3)nn2c(C)c1Cc1ccccc1Cl,inactive: -4.89%
7,Cc1c(Cl)cccc1-c1ccc(CNCCCSc2nnnn2C)o1,inactive: -19.3%
8,CCc1ccc(S(=O)(=O)c2cn(C)c3cc(N4CCOCC4)c(F)cc3c2=O)cc1,inactive: -13.2%
9,Cc1nnc(N2CCCC(C(=O)NCc3ccccc3)C2)c2nn(-c3ccccc3)c(C)c12 (centres undefined),inactive: -7.42%
10,CCCCN(C)CCNC(=O)C1CCCN(S(=O)(=O)c2cccc3nsnc23)C1 (centres undefined),inactive: -4.16%
11,Fc1ccc(N2CCN(c3nc4ccccc4c4nc(-c5cccnc5)nn34)CC2)cc1,inactive: 5.51%
12,O=C1Nc2ccccc2Oc2cc(Oc3cccc(Cl)c3)ccc21,inactive: -1.11%
13,CCOc1ccc(NC(=O)c2c(C)nn(-c3ccc(F)cc3)c2-n2cccc2)cc1,inactive: -6.49%
14,CCOC(=O)C1CCN(CC(=O)Nc2cc(C)c3c(=O)oc4ccccc4c3n2)CC1,inactive: -0.98%
15,Cc1cn2c(=O)cc(COc3cccc(NC(=O)c4ccc(C(C)(C)C)cc4)c3)nc2s1,inactive: -26.6%
16,Cc1ccc(NC(=O)CN(C)S(=O)(=O)c2ccc3c(c2)n(C)c(=O)c(=O)n3C)cc1F,inactive: -14.2%
17,Cc1nn(-c2ccccc2)c2nc(C3CC3)cc(C(=O)Nc3ccc(F)cc3)c12,inactive: -5.7%
18,O=C(Nc1ccc(OCc2cc(=O)n3c4c(sc3n2)CCCC4)cc1)c1cccc(F)c1,inactive: -11.4%
19,O=C(CCn1cnc2onc(-c3ccc(F)cc3)c2c1=O)Nc1ccc(F)c(Cl)c1,inactive: -15.3%
20,CCc1ccc(NC(=O)Nc2cn(C)c(=O)c3ccccc23)cc1,inactive: 5.82%
